Source: patent publication US20150366877A1, “METHODS OF TREATMENT OF HUMAN CYTOMEGALOVIRUS INFECTION AND DISEASES WITH BROMODOMAIN INHIBITORS” (Washington University, priority 2013, published 2015)

System: HCMV laboratory-adapted strain AD169-GFP
Assay: microbe, parasite or virus in culture
Conditions: for IC50 / IC90: Human betaherpesvirus 5, AD169, AD169-GFP
Method: For standard assays, human foreskin fibroblast (HFF) cells were cultured in black 96-well plates (Corning, USA) and infected with recombinant laboratory-adapted strains of AD169-GFP with various MOIs to compare MOI dependency of (+)-JQ-1 treatment. (MOIs of 1, 0.3, 0.1, and 0.03) After virus adsorption, the virus inoculum was replaced with 200 μl medium containing the respective bromodomain inhibitors followed by serial 2-fold dilutions. Drug concentrations were tested at least in duplicate and the drug concentrations were maintained by replaced the medium every 24 hours. Plates were incubated at 37 C for 7-8 days. The medium was replaced by 200 μl PBS, and GFP units (GFPU) were determined by a fluorescence detector (BioTek Synergy H1, USA). IC50 and IC90 values were calculated using nonlinear regression curve fit with a variable slope (four parameters). GraphPad Prism 6 was used for the analysis.

Cc1sc2c(c1C)C(c1ccc(Cl)cc1)=N[C@@H](CC(=O)OC(C)(C)C)c1nnc(C)n1-2 [(+)-JQ1, 4-(4-chlorophenyl)-2,3,9-trimethyl-1,1-dimethylethyl ester-6H-thieno[3,2-f][1,2,4]triazolo[4,3-}{1,4}diazepine-6S-acetic acid]
IC50 (MOI 0.03): 58.6 nM | IC90 (MOI 0.03): 144 nM | IC50 (MOI 0.1): 59 nM | IC90 (MOI 0.1): 192 nM | IC50 (MOI 0.3): 68.4 nM | IC90 (MOI 0.3): 223 nM | IC50 (MOI 1): 58.1 nM | IC90 (MOI 1): 602 nM | MOI dependency of blocking of HCMV infection (compared to known CMV antivirals): less MOI dependent
